Among all 340,000 compounds or so, about 12,000 (3.5%) were called active. The shares of active, inactive and inconclusive entries below differ from those in the screen. The call rests on the fitted dose curve; in most records, active means well fitted inhibition curve with a large enough effect; inconclusive means small, poorly fitted or top-dose-only effect, or another doubt; inactive means no such curve, though single readings can be large or run the other way. Potencies of inconclusive entries are left out as doubtful fits.
Assay: qHTS Assay for Inhibitors of Hepatitis C Virus (HCV)
Conditions: Huh7.5.1 HCVcc-Cre (HCVcc is cell-culture hepatitis C virus) infection, luciferase reporter, 44 h; series mostly up to 41.8 µM
Outline: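 Cells seeded at 1,000/well and cultured 4 h, then compounds added followed by HCVcc-Cre virus (~0.5 moi). After 44 h further culture, luciferase substrate was added, plates held 15 min at room temperature, and luminescence read for 15 sec.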
Potency means the concentration at half of the fitted maximal effect; tags describe the fitted curve by direction and shape.

| Compound | Potency |
| --- | --- |
| CCN(CC)c1ccc(N=Cc2ccccc2[N+](=O)[O-])cc1 | inconclusive [inhibitor, partial curve] |
| Cc1cccc(-n2c(C)cc(/C=C3\C(=N)N4N=C(CC(C)C)SC4=NC3=O)c2C)c1 | inconclusive [inhibitor, single point] |
| C#CCOCCOCCOCCNc1nc(N2CCN(C(=O)CCCCCCCCCCNC(=O)[C@H]([C@@H](C)CC)n3cc(CCCCN=C(N)N)nn3)CC2)nc(N2CCN(C(=O)CCCCCCCCCCNC(=O)[C@H]([C@@H](C)CC)n3cc(CCCCN=C(N)N)nn3)CC2)n1 | inconclusive [inhibitor, partial curve] |
| CCC(NC(=O)c1cc(COc2ccc(F)cc2Cl)on1)c1ccncc1 (stereo unspecified) | active: 3.98 µM |
| CC(=O)N1CCN(c2nc(CC(C)C)c3c(c2C#N)CCC3)CC1 | inconclusive [inhibitor, full curve, poor fit] |
| O=C(/C=C/c1ccc(O)c(O)c1)NC(=O)c1ccccc1O | inactive |
| CCNc1nc(N)nc(Oc2ccc(OCCOc3ccc(Cl)cc3Cl)nn2)n1 | inconclusive [inhibitor, single point] |
| O=C(Nc1ccccc1)N(Cc1ccccc1)Cc1ccccc1 | inactive |
| CC(C)(C)OC(=O)NCCCCCNC(=O)c1nc[nH]c1C(=O)NCC(=O)OCc1ccccc1 | inconclusive [inhibitor, single point] |
| c1cnc2c(OCc3cn4cccnc4n3)cccc2c1 | inconclusive [inhibitor, partial curve, poor fit] |
| COc1ccc(C(=O)Nc2ccc3[nH]ccc3c2)cc1OC | inconclusive [inhibitor, partial curve] |
| c1ccc(N=Nc2cn[nH]c2-c2ccco2)cc1 | inconclusive [inhibitor, single point] |
| CN1CCc2nc(SCc3ccc(C(C)(C)C)cc3)c(C#N)cc2C1 | inconclusive [inhibitor, full curve] |
| COc1ccc(-c2nc(C3CCCCC3)c3cc(OC)ccc3n2)cc1 | inactive |
| Cc1onc(-c2ccccc2Cl)c1C(=O)Nc1cccc2nsnc12 | inconclusive [inhibitor, single point] |
| CCOC(=O)/C(=C\c1cccnc1)C(=O)c1cc(C(C)=O)c(Nc2ccccc2)s1 | inconclusive [inhibitor, single point] |
| O=c1[nH]c(=O)n(CCC2=CCCCC2)c(O)c1/C=N/Nc1ccccc1 | inactive |
| O=S(=O)(c1cccc(F)c1)N1CCN(c2nc(-c3cccnc3)nc3ccccc23)CC1 | inconclusive [inhibitor, single point] |
| CC1CCCCN1Cc1c(O)ccc2c(=O)c(-c3nc4ccccc4s3)coc12 (stereo unspecified) | inconclusive [inhibitor, single point] |
| O=C(Cn1cnc2ccccc2c1=O)c1ccc(Cl)cc1 | inactive |
| Cc1ccccc1CN1C(=O)/C(=C\c2ccc(C(=O)NCCN3CCOCC3)cc2)Sc2ccccc21 | inconclusive [inhibitor, single point] |

| Compound | Potency |
| --- | --- |
| O=C(Nc1cccc2nsnc12)c1cccs1 | inconclusive [inhibitor, single point] |
| O=c1c2c([nH]c3ccccc13)CCCCCC2 | inconclusive [inhibitor, partial curve] |
| CCO[C@H]1OC(C(=O)N2CCN(C)CC2)=C[C@@H](C2CC2)[C@@H]1CCCO | inconclusive [inhibitor, single point] |
| COCC(=O)N1CCC(n2nccc2NC(=O)CCOc2ccccc2)CC1 | inconclusive [inhibitor, single point] |
| CCOc1ccccc1NC(=O)c1ccc(S(=O)(=O)N(C)c2ccccc2)cc1 | inconclusive [inhibitor, full curve, poor fit] |
| CN(CC(=O)Nc1ccc(Cl)cc1)C(=O)c1cc(-c2cccs2)nn1-c1ccccc1 | inconclusive [inhibitor, single point] |
| Cc1ccccc1N1CCN(S(=O)(=O)c2nnc(NC(=O)c3ccc(F)cc3)s2)CC1 | inconclusive [inhibitor, single point] |
| C[C@H](CO)N1C[C@H](C)[C@@H](CN(C)C(=O)Nc2ccccc2)Oc2ccc(NC(=O)Nc3ccccc3)cc2C1=O | inactive |
| Cc1ccccc1/C=N/Nc1ccnc2cc(Cl)ccc12 | inconclusive [inhibitor, partial curve] |
| Cc1csc(NC(=O)CCCSc2nc3ccccc3s2)n1 | inconclusive [inhibitor, single point] |
| CC(=O)c1ccc(N2CCN(S(=O)(=O)c3ccc4c5c3CC(=O)N5CC(C)S4)CC2)cc1 (stereo unspecified) | inconclusive [inhibitor, single point] |
| CCC(c1nnnn1CS(=O)(=O)c1ccc(C)cc1)N1CCC(C(N)=O)CC1 (stereo unspecified) | inconclusive [inhibitor, single point] |
| O=C(Nc1nc2ccc(S(=O)(=O)N3CCCC3)cc2s1)c1ccccn1 | inconclusive [inhibitor, single point] |
| Cc1cc(C)n2nc(C(=O)N3CCCC(N4CCN(c5ccccc5C)CC4)C3)cc2n1 (stereo unspecified) | inconclusive [inhibitor, partial curve, poor fit] |
| CN1CCN(S(=O)(=O)c2cccc(C(=O)Oc3ccccc3Cl)c2)CC1 | inactive |
| CCOc1ccc(Nc2nc(N3CCCCC3)nc(N3CCCCC3)n2)cc1 | inconclusive [inhibitor, partial curve, poor fit] |
| COc1ccc(C(=O)NNC(=O)C(=O)N2CCCCC2)cc1OC | inactive |
| CN1CCN(Cc2cc(=O)n3ccsc3n2)CC1 | inactive |
| CN1CCc2nc(SC(C(=O)O)c3ccccc3)c(C#N)c(-c3cccs3)c2C1 (stereo unspecified) | active: 10 µM |
| C[C@H](NC(=O)c1nc[nH]c1C(=O)N1CCN(c2ccccc2)CC1)C(=O)OC(C)(C)C | inconclusive [inhibitor, single point] |

Source: PubChem BioAssay AID651820 (National Center for Advancing Translational Sciences (NCATS), 2012)
